Test results: patent publication US20210230266A1 (SINGAPORE HEALTH SERVICES PTE, published 2021)

How the values were obtained:
Human IL-11 = molecular target: T1, Human IL-11 (human, UniProt P20809 22-199); test: ELISA
T1 construct: Recombinant human IL-11 (GenScript Cat. No. Z03108-1) or IL-11 secreted by human cells; the mature form is said to have 178 residues; also called recombinant human IL-11; endogenously produced IL-11
T1 sequence: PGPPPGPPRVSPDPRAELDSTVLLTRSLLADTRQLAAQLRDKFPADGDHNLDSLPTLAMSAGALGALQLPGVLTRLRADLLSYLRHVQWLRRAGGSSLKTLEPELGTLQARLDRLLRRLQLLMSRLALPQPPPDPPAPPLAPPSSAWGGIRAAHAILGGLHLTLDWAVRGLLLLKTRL
Procedure: (§1) The soluble scFv were produced by recombinant expression in E. coli, and analysed for their ability to bind to human IL-11 and murine IL-11 by ELISA. Briefly, the respective antigen was coated to wells of an ELISA plate, the cell culture supernatant containing the respective scFv was added at a 1:2 dilution, and binding was detected.

Mouse IL-11 = molecular target: T2, Mouse IL-11 (mouse, UniProt P47873 22-199, limits assumed); test: ELISA
T2 construct: also called murine IL-11; recombinant murine IL-11
T2 sequence (looked up): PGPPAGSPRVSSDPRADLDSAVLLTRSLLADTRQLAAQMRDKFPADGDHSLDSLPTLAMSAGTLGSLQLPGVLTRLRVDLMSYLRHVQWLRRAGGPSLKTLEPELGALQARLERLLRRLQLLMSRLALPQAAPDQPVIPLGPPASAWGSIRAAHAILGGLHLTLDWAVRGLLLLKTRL
Procedure: as §1

B1: YU112-E08 (antibody)
chain: VTLKESGGGVVQPGRSLRLSCAASGFTFSSYGMHWVRQAPGKGLEWVAVISYDGSNKYYADSVKGRFTISRDNSKNTLYLQMNSLRAEDTAVYYCAKGGKSYYGFDYWGQGTLVTVSSGSASAPKLEEGEFSEARV[about 100 residues left out here]TWTFGQGTKVEIK
hIL11 - average signal (Human IL-11): 0.373
mIL11 - average signal (Mouse IL-11): 0.323
